Test results taken from paper PMC7673785.
These are yes or no findings as the source states them, for the method shown. Binding seen in cells or lysates may run through a third protein. Some entries that bind do so weakly or less than the wild type.

Target: Flag-RIPK3 (in MEFs) (not stated (human or mouse cDNA cloned)), Q9QZL0
Experiment: co-IP; MEF-Flag-RIPK3 and MEF (Csnk1g2−/−)-Flag-RIPK3 cells treated with the indicated stimuli for 6 hr; extracts precipitated with anti-Flag antibody, western blot for RIPK1 and CSNK1G2
Conditions: remark: other sources report otherwise

binding: binds
B1: RIPK1 (endogenous, MEF), Q60855 1-656 (enzyme)
chain: MQPDMSLDNIKMASSDLLEKTDLDSGGFGKVSLCYHRSHGFVILKKVYTGPNRAEYNEVLLEEGKMMHRLRHSRVVKLLGIIIEEGNYSLVMEYMEKGNLMHVLKTQIDVPLSLKGRIIVEAIEGMCYLHDKGVIHKDLKPENILVDRDFHIKIADLGVASFKTWSKLTKEKDNKQKEVSSTTKKNNGGTLYYMAPEHLNDINAKPTEKSDVYSFGIVLWAIFAKKEPYENVICTEQFVICIKSGNRPNVEEILEYCPREIISLMERCWQAIPEDRPTFLGIEEEFRPFYLSHFEEYVEEDVASLKKEYPDQSPVLQRMFSLQHDCVPLPPSRSNSEQPGSLHSSQGLQMGPVEESWFSSSPEYPQDENDRSVQAKLQEEASYHAFGIFAEKQTKPQPRQNEAYNREEERKRRVSHDPFAQQRARENIKSAGARGHSDPSTTSRGIAVQQLSWPATQTVWNNGLYNQHGFGTTGTGVWYPPNLSQMYSTYKTPVPETNIPGSTPTMPYFSGPVADDLIKYTIFNSSGIQIGNHNYMDVGLNSQPPNNTCKEESTSRHQAIFDNTTSLTDEHLNPIRENLGRQWKNCARKLGFTESQIDEIDHDYERDGLKEKVYQMLQKWLMREGTKGATVGKLAQALHQCCRIDLLNHLIRASQS
